In the experiment the test system is BDF1 mice, colon carcinoma 38 sc, T/C %. Put plainly: NCI In Vivo Anticancer Drug Screen. Data for tumor model Colon Carcinoma 38 (subcutaneous) in B6D2F1 (BDF1) mice. The settings on record: endpoint: median tumor weight (est.), higher = larger tumour. Put shortly: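 Mice with transplanted tumors are treated with compound or vehicle. Survival or tumor size is then measured in both groups. The ratio of treated to control gives the reported figure.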

[1] abbreviates: dose: 100.0 mg/kg/injection, schedule: Q07DX002 (ip), vehicle: saline.
Where [2] appears, read: dose: 12.5 mg/kg/injection, schedule: Q07DX002 (ip), vehicle: saline with Tween-80.
Setting [3] is: dose: 25.0 mg/kg/injection, schedule: Q07DX002 (ip), vehicle: saline with Tween-80.
Setting [4] is: dose: 25.0 mg/kg/injection, schedule: Q07DX002 (ip), vehicle: Klucel (hydroxypropylcellulose) (HPC).
The mark [5] stands for this setting: dose: 100.0 mg/kg/injection, schedule: Q07DX002 (ip), vehicle: Klucel (hydroxypropylcellulose) (HPC).
Setting [6] is: dose: 50.0 mg/kg/injection, schedule: Q07DX002 (ip), vehicle: saline.

Inconclusive results are not listed. Some entries of the source have several records that differ or are many. Only these are listed. There may be further records. Values that stand side by side are repeats in other runs, samples, wells, individuals or studies.

As for `C1=CCOCOC1`, the T/C (dose: 50.0 mg/kg/injection, schedule: Q07DX002 (ip), vehicle: saline with Tween-80) was 68 % of control and 119 % of control.

Regarding `COC(=O)c1ccoc1`, the T/C under setting [1] was 45 % of control and 81 % of control. Consider `N=C(N)Sc1ccccn1`, for which the T/C (dose: 12.5 mg/kg/injection, schedule: Q07DX003 (ip), vehicle: saline) was 45 % of control and 109 % of control; the T/C (dose: 25.0 mg/kg/injection, schedule: Q07DX003 (ip), vehicle: saline) was 86 % of control and 120 % of control.

For the molecule `O=S1(=O)C=C(c2ccccc2)C(c2ccccc2)=C1`, the T/C was 28 % of control and 122 % of control under setting [2]; 46 % of control and 76 % of control under setting [3].

Turning to `CS(=O)(=O)OCCN(CCOS(C)(=O)=O)c1ccc(C=Nc2ccc(-c3csc(COc4ccccc4)n3)cc2)cc1`, the T/C by setting is: (dose: 12.5 mg/kg/injection, schedule: Q07DX002 (ip), vehicle: Klucel (hydroxypropylcellulose) (HPC)) 60 % of control and 113 % of control; under setting [4], 66 % of control and 97 % of control; under setting [5], 70 % of control and 152 % of control. In the case of `O=CC=O`, the T/C is, setting by setting: under setting [2], 52 % of control and 151 % of control; under setting [3], 56 % of control and 89 % of control; (dose: 200.0 mg/kg/injection, schedule: Q07DX002 (ip), vehicle: saline with Tween-80) 64 % of control and 108 % of control. In the case of `COc1cc(NS(C)(=O)=O)ccc1Nc1c2ccccc2nc2ccccc12`, the T/C is 73 % of control and 115 % of control (dose: 0.5 mg/kg/injection, schedule: Q07DX002 (ip), vehicle: other); 58 % of control and 100 % of control (dose: 2.0 mg/kg/injection, schedule: Q07DX002 (ip), vehicle: other); 19 % of control and 74 % of control (dose: 8.0 mg/kg/injection, schedule: Q07DX002 (ip), vehicle: other).

Consider `[O-][n+]1c(CN2CCCCC2)nc2cccc3c2c1-c1ccccc1-3`, for which the T/C under setting [3] was 51 % of control and 166 % of control; the T/C (dose: 100.0 mg/kg/injection, schedule: Q07DX002 (ip), vehicle: saline with Tween-80) is 42 % of control and 95 % of control. As for `O=c1[nH]c(=O)c2nc(-c3cccnc3)cnc2[nH]1`, the T/C under setting [6] is 86 % of control and 120 % of control; the T/C under setting [1] was 78 % of control and 113 % of control. With `S=C(Nc1ccc(Cl)c(Cl)c1)N1c2ccccc2-n2cccc2C1c1cccnc1` (configuration not stated), under setting [5], the T/C was 86 % of control and 154 % of control. With `CC(=O)OCC1OC([S-])C(OC(C)=O)C(OC(C)=O)C1OC(C)=O.CC[PH+](CC)CC.CC[PH+](CC)CC.[Au].[Au]` (configuration not stated), under “dose: 1.25 mg/kg/injection, schedule: Q07DX002 (ip), vehicle: Klucel (hydroxypropylcellulose) (HPC)”, the T/C was 101 % of control and 161 % of control. Take `CCC(=O)O[C@H]1CC[C@H]2[C@@H]3CCC4=CC(=O)CC[C@]4(C)[C@H]3CC[C@]12C`: the T/C is 68 % of control, 87 % of control, 103 % of control (dose: 80.0 mg/kg/injection, schedule: Q07DX002 (ip), vehicle: Klucel (hydroxypropylcellulose) (HPC)); 117 % of control and 159 % of control (dose: 160.0 mg/kg/injection, schedule: Q07DX002 (ip), vehicle: Klucel (hydroxypropylcellulose) (HPC)); 80 % of control, 115 % of control, 121 % of control (dose: 320.0 mg/kg/injection, schedule: Q07DX002 (ip), vehicle: Klucel (hydroxypropylcellulose) (HPC)).

For `CC(=O)OCC(=O)[C@@]12OC(C)(C)O[C@@H]1C[C@H]1[C@@H]3CC(C=O)=C4C=C(OCCCl)CC[C@]4(C)[C@@]3(F)[C@@H](O)C[C@@]12C`, the T/C (dose: 50.0 mg/kg/injection, schedule: Q07DX003 (ip), vehicle: Klucel (hydroxypropylcellulose) (HPC)) is 74 % of control and 116 % of control. For the molecule `COC1CC(CC2CCC(C)C(C(C)C(=O)O)O2)OC2(OC(C)(C3CCC(C)(C4OC(C5OC(O)(CO)C(C)CC5C)CC4C)O3)CC2C)C1C` (configuration not stated), the T/C (dose: 0.63 mg/kg/injection, schedule: Q07DX002 (ip), vehicle: Klucel (hydroxypropylcellulose) (HPC)) is 74 % of control and 104 % of control. On to `CCN(CC)CCCNc1nccc2c(C)c3[nH]c4ccncc4c3cc12`, for which the T/C was 70 % of control and 111 % of control (dose: 2.5 mg/kg/injection, schedule: Q07DX002 (ip), vehicle: other); 30 % of control and 64 % of control (dose: 5.0 mg/kg/injection, schedule: Q07DX002 (ip), vehicle: other); 19 % of control and 92 % of control (dose: 10.0 mg/kg/injection, schedule: Q07DX002 (ip), vehicle: other). Regarding `COc1cccc2c1C(=O)c1c(O)c3c(c(O)c1C2=O)CC(O)(C(=O)CO)CC3OC1CC(N)C(O)C(C)O1` (configuration not stated), the T/C was 66 % of control and 121 % of control (dose: 12.5 mg/kg/injection, schedule: Q07DX002 (ip), vehicle: saline); 51 % of control and 124 % of control under setting [6]; 16 % of control and 53 % of control under setting [1]. `CN(C(=S)S(=O)(=O)C12CC3CC(CC(C3)C1)C2)c1ccccc1`: under setting [4], the T/C was 115 % of control and 150 % of control.

`CC(C#N)(C#N)N=Nc1ccc(Cl)cc1Cl`: the T/C (dose: 400.0 mg/kg/injection, schedule: Q07DX002 (ip), vehicle: saline with Tween-80) is 68 % of control and 95 % of control. As to `O=NN(CCCl)C(=O)NC1CCCCC1`, the T/C is 39 % of control and 90 % of control (dose: 2.5 mg/kg/injection, schedule: Q07DX002 (ip), vehicle: Klucel (hydroxypropylcellulose) (HPC)); 47 % of control, 57 % of control, 96 % of control (dose: 5.0 mg/kg/injection, schedule: Q07DX002 (ip), vehicle: Klucel (hydroxypropylcellulose) (HPC)). Take `CC1CCC(n2cnc3c(Cl)ncnc32)O1` (configuration not stated): the T/C by setting is: under setting [4], 86 % of control and 156 % of control; (dose: 400.0 mg/kg/injection, schedule: Q07DX002 (ip), vehicle: Klucel (hydroxypropylcellulose) (HPC)) 71 % of control and 108 % of control. Regarding `Cc1ccc(NCCN(C)C)c2c(=O)c3cc(O)ccc3sc12`, the T/C by setting is: under setting [4], 86 % of control and 119 % of control; (dose: 50.0 mg/kg/injection, schedule: Q07DX002 (ip), vehicle: Klucel (hydroxypropylcellulose) (HPC)) 60 % of control and 93 % of control. For the molecule `Cc1[nH]c(=O)[nH]c(=O)c1N(CCF)CCCl`, the T/C (dose: 8.0 mg/kg/injection, schedule: Q07DX002 (ip), vehicle: Klucel (hydroxypropylcellulose) (HPC)) is 67 % of control and 98 % of control. Consider `NC(=O)/C=C/C(=O)c1c(Cl)cccc1Cl`, for which the T/C by setting is: (dose: 1.56 mg/kg/injection, schedule: Q07DX002 (ip), vehicle: saline with Tween-80) 33 % of control, 104 % of control, 108 % of control; (dose: 3.12 mg/kg/injection, schedule: Q07DX002 (ip), vehicle: saline with Tween-80) 30 % of control, 113 % of control, 119 % of control; (dose: 6.25 mg/kg/injection, schedule: Q07DX002 (ip), vehicle: saline with Tween-80) 55 % of control, 100 % of control, 104 % of control; under setting [2], 32 % of control and 96 % of control; under setting [3], 14 % of control and 160 % of control. Regarding `Cc1cnc(/C=N\NC(N)=S)c2cccc(N)c12`, under setting [3], the T/C is 52 % of control and 97 % of control.

The values above are taken from PubChem BioAssay AID212 (DTP/NCI, 2004).
